Results on 4 molecules are retold here after US20250145705A1 (SHANDONG SIMCERE BIOPHARMACEUTICAL, published 2025).

For test [1], the target named is T1, human GPRC5C (human, UniProt Q9NQ84 24-441).
T1 construct: also called hGPRC5C; on CHOK1-hGPRC5C cells
T1 sequence: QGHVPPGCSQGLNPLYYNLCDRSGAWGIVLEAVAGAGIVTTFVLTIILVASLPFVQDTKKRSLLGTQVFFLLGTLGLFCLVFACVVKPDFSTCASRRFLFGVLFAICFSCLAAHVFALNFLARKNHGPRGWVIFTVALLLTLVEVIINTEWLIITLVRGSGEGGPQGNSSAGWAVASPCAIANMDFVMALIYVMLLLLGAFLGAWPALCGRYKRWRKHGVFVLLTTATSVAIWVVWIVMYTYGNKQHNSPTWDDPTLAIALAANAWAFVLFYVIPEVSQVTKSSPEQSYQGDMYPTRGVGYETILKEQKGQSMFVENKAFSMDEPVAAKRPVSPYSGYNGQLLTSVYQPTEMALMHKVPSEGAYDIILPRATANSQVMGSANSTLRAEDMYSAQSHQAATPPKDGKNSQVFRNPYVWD
Kind of test: FACS, CHOK1-hGPRC5C cells.

For test [2], the target named is T2, hGPRC5D-LVP protein (human, UniProt Q9NZD1 1-345, limits assumed). Kind of test: competitive ELISA, competitor Biotin-5F11; antibody at 1.85 nM.
In test [3] the target is T2, hGPRC5D-LVP protein. Kind of test: competitive ELISA, competitor Biotin-5F11; antibody at 0.07 nM.
Test [4] deals with T2, hGPRC5D-LVP protein. Kind of test: competitive ELISA, competitor Biotin-5F11; antibody at 0 nM.
Test [5] deals with T2, hGPRC5D-LVP protein. In words: competitive ELISA, competitor Biotin-5F11; antibody at 16.67 nM.
The target of test [6] is T3, human GPRC5D (human, UniProt Q9NZD1 1-345).
T3 construct: the cell line is named under assay; also called hGPRC5D; G protein coupled receptor C5 family subtype D
Kind of test: FACS, NCI-H929 cells. Here is the method: (§1) The desired cells were scale-up cultured in a T-75 cell culture flask to the logarithmic growth phase. NCI-H929, MolP-8 and RPMI-8226 cells were collected and washed with PBS buffer 2 times. After counting the cells, the cell pellet was resuspended with [PBS+2% (w/v) BSA] blocking solution to 2×10⁶ cells/ml, and added to a 96-well FACS reaction plate at 50 μl/well, and then the chimeric antibody test sample was added at 50 μl/well, and incubated on ice for 1 h. […] The obtained mixture was centrifuged and washed 3 times with a PBS buffer, and FACS (FACS CantoII, purchased from BD Company) was used for detection and result analysis. Data analysis was performed by software (Flowjo) to obtain the mean fluorescence intensity (MFI) of the cells. Then a software (GraphPad Prism8) was used for analysis, the analysis results are shown in Table 9 and FIGS. 9A-9C, 10A-10C and 11A-11C.

The target in test [7] is T3, human GPRC5D. Kind of test: FACS, MolP-8 cells. Here is the method:
as §1

In test [8] the target is T4, human GPRC5A (human, UniProt Q8NFJ5 1-357).
T4 construct: Printed as Uniprot: Q8NFJ5-1; also called hGPRC5A; on CHOK1-hGPRC5A cells
T4 sequence: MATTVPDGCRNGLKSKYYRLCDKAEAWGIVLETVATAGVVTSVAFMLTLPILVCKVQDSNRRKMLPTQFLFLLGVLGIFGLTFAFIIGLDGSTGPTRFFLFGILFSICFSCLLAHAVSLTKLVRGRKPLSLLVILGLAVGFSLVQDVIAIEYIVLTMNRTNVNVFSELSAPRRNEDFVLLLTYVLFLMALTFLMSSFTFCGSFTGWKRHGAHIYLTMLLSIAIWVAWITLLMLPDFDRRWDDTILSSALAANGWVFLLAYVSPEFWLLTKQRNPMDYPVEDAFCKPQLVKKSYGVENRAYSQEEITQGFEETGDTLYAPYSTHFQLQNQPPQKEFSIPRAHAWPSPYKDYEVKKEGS
In words: FACS, CHOK1-hGPRC5A cells.

The target of test [9] is T5, human GPRC5B (human, UniProt Q9NZH0 29-403).
T5 construct: Printed as Uniprot: Q9NZH0-1; also called hGPRC5B; on CHOK1-hGPRC5B cells
T5 sequence: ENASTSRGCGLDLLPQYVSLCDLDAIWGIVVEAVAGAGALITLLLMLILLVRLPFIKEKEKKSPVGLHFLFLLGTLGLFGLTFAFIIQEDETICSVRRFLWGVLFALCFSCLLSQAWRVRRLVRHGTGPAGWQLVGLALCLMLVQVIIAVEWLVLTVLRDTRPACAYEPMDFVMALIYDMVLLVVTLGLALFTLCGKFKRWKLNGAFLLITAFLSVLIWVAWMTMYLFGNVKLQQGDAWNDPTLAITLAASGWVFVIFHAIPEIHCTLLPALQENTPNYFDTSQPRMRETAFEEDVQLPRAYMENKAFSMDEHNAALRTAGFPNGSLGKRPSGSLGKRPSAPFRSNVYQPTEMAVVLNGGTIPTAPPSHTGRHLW
In words: FACS, CHOK1-hGPRC5B cells.

For test [10], the target named is T5, human GPRC5B. In words: FACS, CHOK1-hGPRC5B cells. As for the experimental part:
as §1
This is another data set of the same source.

Test [11] addresses T2, hGPRC5D-LVP protein. In words: competitive ELISA, competitor Biotin-5F11; antibody at 0.21 nM.
Test [12] addresses T2, hGPRC5D-LVP protein. Kind of test: competitive ELISA, competitor Biotin-5F11; antibody at 0.62 nM.
The target of test [13] is T2, hGPRC5D-LVP protein. Kind of test: competitive ELISA, competitor Biotin-5F11; antibody at 5.56 nM.
Test [14] has as its target T3, human GPRC5D. In words: FACS, RPMI-8226 cells. Here is the method: as §1
Test [15] addresses T4, human GPRC5A. In words: FACS, CHOK1-hGPRC5A cells. As for the experimental part:
as §1
The source holds these as a separate data set.

The target of test [16] is T1, human GPRC5C. Kind of test: FACS, CHOK1-hGPRC5C cells. Here is the method: as §1
The source holds these as a separate data set.

Test [17] concerns the target T2, hGPRC5D-LVP protein. In words: competitive ELISA, competitor Biotin-5F11; antibody at 50.00 nM.

T2 sequence (Q9NZD1 whole entry): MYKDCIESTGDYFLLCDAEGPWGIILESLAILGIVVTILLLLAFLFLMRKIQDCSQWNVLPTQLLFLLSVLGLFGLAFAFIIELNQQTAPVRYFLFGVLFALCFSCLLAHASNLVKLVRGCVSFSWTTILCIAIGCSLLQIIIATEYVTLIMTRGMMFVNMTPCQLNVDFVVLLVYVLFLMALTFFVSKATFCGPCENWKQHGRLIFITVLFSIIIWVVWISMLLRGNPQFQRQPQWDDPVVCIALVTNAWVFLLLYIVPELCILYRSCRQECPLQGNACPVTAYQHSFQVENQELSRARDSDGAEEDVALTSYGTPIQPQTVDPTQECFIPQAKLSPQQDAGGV
T3 sequence (Q9NZD1 whole entry): as above

B1: GPRC5D-Mab04scFv-Fc (scFv)
scFv: EVQLVESGGGLVKPGGSLKLSCAASRFTFSRYAMSWVRQTPEKRLEWVATISDGGSYTYYPDNVKGRFTISRDNAKNNLYLQMSHLKSEDTAIYYCARDRYYYGKGGYFDVWGTGTTVTVSSGGGGSGGGGSGGGGSDIQMTQSPASLSVSVGETVTITCRASENIYRNLAWYQQKQGKSPQLLVYAATNLADGVPSRFSGSGSGTQYSLKINSLQSEDFGSYYCQHFWGTPRTFGGGTKLEIK[human IgG1 Fc with C220S (EU numbers) not shown]
notes: Human-mouse chimeric scFv-Fc; also called GPRC5D-mab04 chimeric antibody
Consider B1, for which the binding result in test [1], in test [8] and in test [9] was “no binding” each time. Moreover, the OD450 in test [2] is 0.61; in test [3], 1.1; in test [4], 1.25; in test [5], 0.31; in test [11], 0.96; in test [12], 0.76. Besides, the values for the OD450 in [13] and in [17] were 0.4 and 0.25, respectively. The EC50 came to 0.72 nM in [6], 9.06 nM in [7] and 13.9 nM in [14]. The “Maximum mean fluorescence intensity” value in test [6] was 3690; in test [7], 3300; in [10], 85; in test [14], 561; in test [15], 80; in [16], 77.

B2: GPRC5D-Mab08scFv-Fc (scFv)
scFv: QVQLQQSGAELARPGASVKLSCKTSGYIFTNFGITWVKQRTGQGLEWIGENYPRRINTYYNEKFKGKATLTADKSSNTAYLELRSLTSEDSAVYFCSRKDIFGLSYALDYWGQGTSVTVSSGGGGSGGGGSGGGGSDIVMTQSQKFMSTSVGDRVSVTCKASQNVGTNVAWYQHKPGQSPKALIYSASYQYSGVPDRFTGSGSGTDFTLTISNVQSEDLAEYICQQYKNYPYTFGGGTKLEIK[human IgG1 Fc with C220S (EU numbers) not shown]
notes: Human-mouse chimeric scFv-Fc; also called GPRC5D-mab08 chimeric antibody
As for B2, the binding result in [1], in [8] and in test [9] was “no binding” each time. For the same molecule, the OD450 in test [2] was found to be 0.45; in [3], 0.61; in [4], 0.91; in test [5] it was 0.1; in [11], 0.64; in test [12] it was 0.51. Further, the OD450 in [13] turned out to be 0.18; in [17], 0.06. Further, the 50% effective concentration (EC50) in test [6] stood at 10.2 nM; in [7] it was 17.2 nM; in test [14] it was 8.51 nM. Also, the “Maximum mean fluorescence intensity” value is 5990 in test [6]; 4210 in [7]; 47 in test [10]; 481 in [14]; 72 in test [15]; 47 in [16].

B3: GPRC5D-Mab01scFv-Fc (scFv)
scFv: QVQLKESGPGLVAPSQSLSITCTVSGFSLTNYGVSWVRQPPGKGLEWLGVIWGDGSTNYHSALISRLSIRKDNSKSQVFLKLNSLQTDDTATYYCAKPASYYGRRTYAMDFWGHGTSVTVSSGGGGSGGGGSGGGGSQIVLSQSPAILSASPGEKVTMTCRASSSVSYMHWYQQKPGSSPKPWIYATSHLASGVPARFSGSGSGTSYSLTISRVEAEDAATYYCQQWSSNPPMTFGGGTKLEIK[human IgG1 Fc with C220S (EU numbers) not shown]
notes: Human-mouse chimeric scFv-Fc; also called GPRC5D-mab01 chimeric antibody
Turning to B3, the binding result in test [1], in test [8] and in test [9] was “no binding” throughout. Further, the OD450 came to 0.81 in test [2]; 1.2 in test [3]; 1.33 in [4]; 0.48 in test [5]; 1.16 in test [11]; 0.93 in test [12]. Besides, the values for the OD450 in test [13] and in test [17] were 0.62 and 0.4, respectively. Besides, the EC50 turned out to be 2.2 nM in [6], 8.2 nM in [7] and 6.74 nM in test [14]. For the same molecule, the “Maximum mean fluorescence intensity” value amounted to 6500 in [6]; 4130 in [7]; 81 in test [10]; 552 in test [14]; 95 in [15]; 80 in test [16].

B4: GPRC5D-Mab03scFv-Fc (scFv)
scFv: QAYLQQSGAELVRPGASVKMSCKASGYTFTSYNMNWVKQTPRQGLEWIGAIYPGNGDTSYNQKFKGKATLTVDKSSSTAYMQLSSLTSEDSAVYFCARVRLRYAMDYWGQGTSVTVSSGGGGSGGGGSGGGGSDIVMTQSQKFMSTTVGDRVTITCKASQNVGTAVAWYQQKPGQSPKLLISSASNRYTGVPERFTGSGSGTDFTLTIRNMQSEDLADYFCQQYSSYPWTFGGGTELEIK[human IgG1 Fc with C220S (EU numbers) not shown]
notes: Human-mouse chimeric scFv-Fc; also called GPRC5D-mab03 chimeric antibody
On to B4, for which the binding result in test [1], in test [8] and in test [9] was “no binding” each time. In addition, the OD450 was found to be 0.42 in test [2]; 1.02 in test [3]; 1.12 in test [4]; 0.2 in [5]; 0.84 in [11]; 0.55 in [12]. The OD450 in [13] worked out at 0.27; in test [17], 0.14. Also, the concentration for a half-maximal effect (EC50) in [6] amounted to 1.09 nM; in [7], 2.65 nM; in test [14], 3.98 nM. Besides, the “Maximum mean fluorescence intensity” value in test [6] came out at 4580; in [7], 4090; in [10] it was 78; in test [14], 584; in [15], 74; in [16], 74.
